Assay results reported in the supplement of paper PMC4604168 (melanoma cell lines).
This is one part of the list. Many values rest on one well or one pass, so single values are uncertain.

Legend:
Test in all cases: cell count relative to DMSO control; melanoma cells; higher = more viable cells
Conditions in all cases: library dose: low library concentration; 72 h
WM115 = tested on: WM115
WM1716 = tested on: WM1716
WM1745 = tested on: WM1745
WM3526 = tested on: WM3526
WM3619 = tested on: WM3619
WM451Lu = tested on: WM451Lu
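Further: cell number obtained by counting DAPI-stained nuclei in high-throughput microscope images with image analysis software, screen run in 1,536-well plates.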

| Structure (SMILES) | cell count (WM115) | cell count (WM1716) | cell count (WM1745) | cell count (WM3526) | cell count (WM3619) | cell count (WM451Lu) |
| --- | --- | --- | --- | --- | --- | --- |
| O=C(CCCCCCC(=O)Nc1ccccc1)NO [vorinostat] + Cc1ccc(NC(=O)c2cccc(N(C)C)c2)cc1NC(=O)c1ccc(O)cc1 [ZM336372] (first compound 0.08 µM, partner dose 2 µM) | 93.5% | 123% | 91.4% | 80% | 91.6% | 87.2% |
| O=C(CCCCCCC(=O)Nc1ccccc1)NO [vorinostat] + COc1cc2c(Oc3ccc4[nH]c(C)cc4c3F)ncnc2cc1OCCCN1CCCC1 [cediranib] (first compound 0.08 µM, partner dose 0.4 µM) | 101% | 116% | 108% | 94.2% | 99% | 82.6% |
| COCC[n+]1c2c(n(Cc3cnccn3)c1C)C(=O)c1ccccc1C2=O + Oc1cc(-c2nc(-c3ccccc3)[nH]c2-c2ccncc2)ccc1Cl [L779450] (first compound 0.0004 µM, partner dose 0.2 µM) | 90.4% | 107% | 90.5% | 78.2% | 60.8% | 71.4% |
| Clc1ccc(Nc2nnc(Cc3ccncc3)c3ccccc23)cc1 [vatalanib] + Cc1nc(Nc2ncc(C(=O)Nc3c(C)cccc3Cl)s2)cc(N2CCN(CCO)CC2)n1 [dasatanib] (first compound 2 µM, partner dose 0.004 µM) | 70.6% | 74.5% | 70.6% | 98.4% | 89.1% | 60.7% |
| C#Cc1cccc(Nc2ncnc3cc(OCCOC)c(OCCOC)cc23)c1 [erlotinib] + CC(C)CCN1c2nc(Nc3cc(F)c(O)c(F)c3)ncc2N(C)C(=O)C1C [BID1870] (first compound 0.8 µM, partner dose 0.2 µM) | 89.3% | 91.2% | 87% | 87.7% | 109% | 98.3% |
| C#Cc1cccc(Nc2ncnc3cc(OCCOC)c(OCCOC)cc23)c1 [erlotinib] + Oc1nc(-c2ccc(C(F)(F)F)cc2)nc2c1CSCC2 [XAV939] (first compound 0.8 µM, partner dose 2 µM) | 83.9% | 56.2% | 74.6% | 96.2% | 111% | 93% |
| Nc1cccc2c1CN(C1CCC(=O)NC1=O)C2=O (stereo not drawn) [lenalidomide] + O=c1cc(-c2cccc3c2Sc2ccccc2S3)oc(N2CCOCC2)c1 [KU55933] (first compound 1 µM, partner dose 1 µM) | 92.6% | 115% | 122% | 94% | 136% | 109% |
| OCc1c[nH]c2ccccc12 [Indole-3-carbinol] + Clc1ccc(Nc2nnc(Cc3ccncc3)c3ccccc23)cc1 [vatalanib] (first compound 0.8 µM, partner dose 2 µM) | 90.2% | 87.6% | 99.3% | 91.5% | 113% | 90.3% |
| COCC[n+]1c2c(n(Cc3cnccn3)c1C)C(=O)c1ccccc1C2=O + COC(=O)c1sccc1S(=O)(=O)Nc1ccc(Nc2ccccc2)cc1OC [GSK0660] (first compound 0.0004 µM, partner dose 1 µM) | 91.5% | 86% | 97.2% | 95.2% | 101% | 53.6% |
| COCC[n+]1c2c(n(Cc3cnccn3)c1C)C(=O)c1ccccc1C2=O + c1cc(-c2cnn3cc(-c4ccc(OCCN5CCCCC5)cc4)cnc23)ccn1 [Dorsomorphin] (first compound 0.0004 µM, partner dose 0.4 µM) | 88.6% | 87.1% | 80.5% | 90.2% | 83.4% | 71.2% |
| OCc1c[nH]c2ccccc12 [Indole-3-carbinol] + CO[C@@H]1[C@H](N(C)C(=O)c2ccccc2)C[C@H]2O[C@]1(C)n1c3ccccc3c3c4c(c5c6ccccc6n2c5c31)C(=O)NC4 [Midostaurin] (first compound 0.8 µM, partner dose 0.08 µM) | 80.5% | 56.8% | 75.7% | 94.2% | 96.8% | 81.2% |
| Clc1ccc(Nc2nnc(Cc3ccncc3)c3ccccc23)cc1 [vatalanib] + COc1ccc2c(c1)CCC1C2CCC2(C)C(NCCCCCCN3C(=O)C=CC3=O)CCC12 [U73122] (first compound 2 µM, partner dose 0.4 µM) | 64.9% | 72.3% | 90.1% | 53.9% | 77.4% | 86.2% |
| C#Cc1cccc(Nc2ncnc3cc(OCCOC)c(OCCOC)cc23)c1 [erlotinib] + COc1ccc(COc2ccc(Cc3cnc(N)nc3N)cc2OC)cc1 [GW2580] (first compound 0.8 µM, partner dose 1 µM) | 93.9% | 105% | 77.6% | 101% | 97.5% | 121% |
